Results from PubChem BioAssay AID493208 (National Center for Advancing Translational Sciences (NCATS), 2011).
Hit rate of the full screen: of about 44,000 compounds, about 340 (0.77%) were called active. Another 5% or so got no clear call; they are omitted. Calls follow the shape of the dose curve; as a rule, active = well fitted inhibition curve with a large enough effect; inconclusive = small, poorly fitted or top-dose-only effect; inactive = flat fitted curve, though single readings scatter. This is one part of the list.

Test: Acumen qHTS Assay for Inhibitors of the mTORC1 Signaling Pathway in MEF (Tsc2-/-, p53-/-) Cells: Sytravon;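 also: plate controls were DMSO for no effect and rapamycin for full effect; nearly all actives have a fitted effect of over 50% in size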
Details: phospho-rpS6 immunofluorescence/PI, 24 h; series mostly up to 38.3 µM; activity change, negative = inhibition: at the top concentration
Summary of the method: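 Tsc2-/-, p53-/- MEFs (empty-vector stable line) in DMEM + 10% FBS were treated with compounds 24 h at 37 degree Celsius, fixed, and immunostained for phospho-rpS6 (Alexa-488) with propidium iodide counterstain. Laser-scanning cytometry gave % positive cells, normalized against 7.5 nM rapamycin and DMSO.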

Question: With `CCN(CC)c1cc(C)c2cc(NC(=O)c3cccc(OC)c3OC)ccc2n1` as the compound, how does the “activity change, negative = inhibition” value read?
Answer: The value was inactive: 0%.

Question: Which “activity change, negative = inhibition” value does the source give for `COc1cccc2cc(S(=O)(=O)c3ccc(F)c(C)c3)c(=O)oc12` here?
Answer: The value was inactive: -8.63%.

Question: With `O=C1Nc2ccccc2Oc2cc(Oc3cccc(Cl)c3)ccc21` as the compound, how does the “activity change, negative = inhibition” value read?
Answer: The value was inactive: -21.5%.

Question: Which “activity change, negative = inhibition” value does the source give for `Cc1cc(C)c(S(=O)(=O)N2CCC(n3c(C(F)(F)F)nc4cccnc43)CC2)c(C)c1` here?
Answer: The value was inactive: 3.76%.

Question: With `Cc1nc2nc(SCC(=O)N(C)Cc3ccccc3)nn2c(C)c1Cc1ccccc1Cl` as the compound, how does the “activity change, negative = inhibition” value read?
Answer: Its value is inactive: 1.48%.

Question: Which “activity change, negative = inhibition” value does the source give for `CCCCN(C)CCNC(=O)C1CCCN(S(=O)(=O)c2cccc3nsnc23)C1` (configuration not stated) here?
Answer: Its value is inactive: 0.381%.

Question: With `Cc1c(Cl)cccc1-c1ccc(CNCCCSc2nnnn2C)o1` as the compound, how does the “activity change, negative = inhibition” value read?
Answer: The value was inactive: 0.29%.

Question: For `CCc1ccc(S(=O)(=O)c2cn(C)c3cc(N4CCOCC4)c(F)cc3c2=O)cc1`, which “activity change, negative = inhibition” value is on record?
Answer: The value was inactive: 0.505%.

Question: Which “activity change, negative = inhibition” value does the source give for `Fc1ccc(N2CCN(c3nc4ccccc4c4nc(-c5cccnc5)nn34)CC2)cc1` here?
Answer: The value was inactive: -14.1%.

Question: With `Cc1cn2c(=O)cc(COc3cccc(NC(=O)c4ccc(C(C)(C)C)cc4)c3)nc2s1` as the compound, how does the “activity change, negative = inhibition” value read?
Answer: Its value is inactive: -14.8%.

Question: With `CCOC(=O)C1CCN(CC(=O)Nc2cc(C)c3c(=O)oc4ccccc4c3n2)CC1` as the compound, how does the “activity change, negative = inhibition” value read?
Answer: The value was inactive: 2.29%.

Question: For `C=CCc1ccccc1OCCSc1nc(-c2cccs2)nc2cc(=O)[nH]n12`, which “activity change, negative = inhibition” value is on record?
Answer: The value was inactive: 3.54%.

Question: Which “activity change, negative = inhibition” value does the source give for `CCOc1ccc(NC(=O)c2c(C)nn(-c3ccc(F)cc3)c2-n2cccc2)cc1` here?
Answer: The value was inactive: -2.98%.

Question: With `Cc1nn(-c2ccccc2)c2nc(C3CC3)cc(C(=O)Nc3ccc(F)cc3)c12` as the compound, how does the “activity change, negative = inhibition” value read?
Answer: The value was inactive: 5.48%.

Question: Which “activity change, negative = inhibition” value does the source give for `CCc1c(C)sc2c1CCN(Cc1ccccc1)C2c1ccccc1` (configuration not stated) here?
Answer: Its value is inactive: 4.44%.

Question: Which “activity change, negative = inhibition” value does the source give for `O=C(Nc1ccc(OCc2cc(=O)n3c4c(sc3n2)CCCC4)cc1)c1cccc(F)c1` here?
Answer: Its value is inactive: 1.25%.

Question: With `Cc1ccc(NC(=O)CN(C)S(=O)(=O)c2ccc3c(c2)n(C)c(=O)c(=O)n3C)cc1F` as the compound, how does the “activity change, negative = inhibition” value read?
Answer: The value was inactive: -22%.

Question: With `CC1(C)Cc2c(c(N3CCOCC3)nc3sc(C(=O)Nc4ccc(Cl)cc4)c(N)c23)CO1` as the compound, how does the “activity change, negative = inhibition” value read?
Answer: Its value is inactive: 2.69%.

Question: For `CCOc1ccc(S(=O)(=O)Nc2cccc(-c3ccc(N4CCCC4)nn3)c2)cc1`, which “activity change, negative = inhibition” value is on record?
Answer: The value was inactive: 0.666%.

Question: For `Cc1cccc(NC(=O)CSc2nc(-c3cccc(C)c3)nc3c2Cc2c(CO)cnc(C)c2O3)c1`, which “activity change, negative = inhibition” value is on record?
Answer: Its value is inactive: -0.619%.

Question: For `CCc1nc2ccc(C(=O)NCc3ccc(OC)c(OC)c3)cc2nc1CC`, which “activity change, negative = inhibition” value is on record?
Answer: The value was inactive: 0.312%.

Question: For `Cc1ccc2c(c1)-c1onc(C(=O)N(C)c3cccc(C(F)(F)F)c3)c1CO2`, which “activity change, negative = inhibition” value is on record?
Answer: Its value is inactive: 0%.

Question: For `Cc1ccccc1CNC(=O)Cn1c(C)c2cnn(-c3ccccc3)c(=O)c2c1C`, which “activity change, negative = inhibition” value is on record?
Answer: The value was inactive: -2.18%.

Question: Which “activity change, negative = inhibition” value does the source give for `CCCCOc1ccc(C(=O)Nc2cc(-c3ccc(C)cc3)no2)cc1` here?
Answer: The value was inactive: 1.06%.

Question: Which “activity change, negative = inhibition” value does the source give for `CCOC(=O)c1sc(N2C(=O)c3oc4ccccc4c(=O)c3C2c2ccc(C(C)(C)C)cc2)nc1C` (configuration not stated) here?
Answer: The value was inactive: -0.906%.

Question: With `CCOC(=O)COc1ccc(/C=C(\C#N)c2nc3ccc(C)cc3[nH]2)cc1OC` as the compound, how does the “activity change, negative = inhibition” value read?
Answer: Its value is inactive: -6.4%.

Question: Which “activity change, negative = inhibition” value does the source give for `Cc1cccn2c3c(c(=O)nc12)C(c1cccc(F)c1)CC(=O)N3` (configuration not stated) here?
Answer: Its value is inactive: -4.01%.

Question: For `CCC1CCCCN1Cc1c(O)ccc2c(=O)c(Oc3ccccc3Cl)c(C(F)(F)F)oc12` (configuration not stated), which “activity change, negative = inhibition” value is on record?
Answer: The value was inactive: 1.8%.

Question: Which “activity change, negative = inhibition” value does the source give for `Cc1ccc(CNC(=O)c2ccc3c(c2)CCN3S(=O)(=O)c2ccccc2)cc1` here?
Answer: Its value is inactive: -2.92%.

Question: Which “activity change, negative = inhibition” value does the source give for `Cc1ccc(C)c(NC(=O)CSc2c(C)cnc3c2c(=O)n(C)c(=O)n3C)c1` here?
Answer: Its value is inactive: -3.32%.

Question: With `O=C(Cn1cnc2nc3c(cc2c1=O)CCCC3)N1CCN(c2cccc(C(F)(F)F)c2)CC1` as the compound, how does the “activity change, negative = inhibition” value read?
Answer: The value was inactive: -11.5%.

Question: For `CCOc1ccc(OCC)c(NS(=O)(=O)c2c(C)[nH]c(=O)[nH]c2=O)c1`, which “activity change, negative = inhibition” value is on record?
Answer: Its value is inactive: -4.08%.

Question: Which “activity change, negative = inhibition” value does the source give for `CCC(=O)N1c2ccccc2CC1C(=O)N1CCN(c2cccc(OC)c2)CC1` (configuration not stated) here?
Answer: Its value is inactive: 5.52%.

Question: Which “activity change, negative = inhibition” value does the source give for `COc1ccc(CCNC(=O)c2csc3c2CCCCC3)c(OC)c1` here?
Answer: The value was inactive: -4.27%.

Question: With `COc1ccc(Cn2c(C(=O)O)c(CNC3CCCC3)c3ccc(C)cc32)cc1` as the compound, how does the “activity change, negative = inhibition” value read?
Answer: Its value is inactive: -3.15%.

Question: Which “activity change, negative = inhibition” value does the source give for `Cc1ccc(N(C)C(=O)CC(C)S(=O)(=O)c2ccc3c(c2)NC(=O)CO3)cc1` (configuration not stated) here?
Answer: Its value is inactive: 4.73%.

Question: With `CCc1ccc(NC(=O)Cn2ccn(-c3ccc(OC)cc3)c(=O)c2=O)cc1` as the compound, how does the “activity change, negative = inhibition” value read?
Answer: The value was inactive: -2.22%.

Question: Which “activity change, negative = inhibition” value does the source give for `Cc1cccc(NC(=O)CC2Nc3cccc4cccc(c34)NC2=O)c1` (configuration not stated) here?
Answer: Its value is inactive: -12.5%.

Question: Which “activity change, negative = inhibition” value does the source give for `COC(=O)c1cc2oc(C)cc2n1Cc1cc(C)ccc1C` here?
Answer: Its value is inactive: -1.11%.

Question: With `Cc1ccc(C)c(NC(=O)Cn2ncc3c([nH]c4ccccc43)c2=O)c1` as the compound, how does the “activity change, negative = inhibition” value read?
Answer: Its value is inactive: -9.01%.

Question: With `CCOc1ccc(NC(=O)CSc2nc(-c3cccc(Cl)c3)nc3c2Cc2c(CO)cnc(C)c2O3)cc1` as the compound, how does the “activity change, negative = inhibition” value read?
Answer: Its value is inactive: -2.61%.

Question: For `CCCCN1C(=O)CN(C2CCCCCC2)C(=O)C1c1ccc(OCC)c(OC)c1` (configuration not stated), which “activity change, negative = inhibition” value is on record?
Answer: Its value is inactive: 8.11%.

Question: With `COCCN(Cc1ccco1)C(=O)Cn1ncc2c([nH]c3ccccc32)c1=O` as the compound, how does the “activity change, negative = inhibition” value read?
Answer: Its value is inactive: -19.9%.

Question: With `Cc1cc2c(cc1S(=O)(=O)CCC(=O)N(C)C1CCCCC1)OCC(=O)N2` as the compound, how does the “activity change, negative = inhibition” value read?
Answer: Its value is inactive: -2.11%.

Question: For `Cc1ccc(-c2nnn3c2nc(NCCc2ccccc2)c2ccccc23)cc1`, which “activity change, negative = inhibition” value is on record?
Answer: The value was inactive: -1.84%.

Question: With `CN(c1ncnc2c1c(-c1ccccc1)cn2-c1cccc(Cl)c1)C1CCCCC1` as the compound, how does the “activity change, negative = inhibition” value read?
Answer: Its value is inactive: 6.28%.

Question: For `COc1cccc(NC(=O)CCc2nc(-c3ccc(C(C)(C)C)cc3)no2)c1`, which “activity change, negative = inhibition” value is on record?
Answer: Its value is inactive: -15%.

Question: With `CCc1ccc(CN(Cc2ccco2)C(=O)COc2ccccc2Cl)cc1` as the compound, how does the “activity change, negative = inhibition” value read?
Answer: The value was inactive: -26.3%.

Question: With `Cc1ccc(-c2nnc(Nc3cccc(Br)c3)c3ccccc23)cc1S(=O)(=O)N1CCCCC1` as the compound, how does the “activity change, negative = inhibition” value read?
Answer: Its value is inactive: 9.15%.

Question: For `Cc1cccc(-n2c(=O)c3c(c4cc(C)ccc4n3C)n(C)c2=O)c1`, which “activity change, negative = inhibition” value is on record?
Answer: The value was inactive: -0.791%.

Question: With `Cc1c(Cl)cccc1NC(=O)N1CCC(CN2CCOCC2)CC1` as the compound, how does the “activity change, negative = inhibition” value read?
Answer: The value was inactive: -2.84%.

Question: Which “activity change, negative = inhibition” value does the source give for `Cc1ccc(C)c(C(=O)CSc2nc(-c3ccccc3)nc3c2CCCC3)c1` here?
Answer: Its value is inactive: -18.5%.

Question: With `CC(=O)OCc1cnc(C)c2oc(=O)c(C(=O)Nc3cc(F)ccc3C)cc12` as the compound, how does the “activity change, negative = inhibition” value read?
Answer: The value was inactive: 1.25%.

Question: For `O=C(c1ccc([N+](=O)[O-])cc1)N(Cc1ccco1)c1ccccn1`, which “activity change, negative = inhibition” value is on record?
Answer: Its value is inactive: -2.84%.

Question: For `CC(C)C(=O)Nc1nnc(S(=O)(=O)N(C)Cc2ccc(F)cc2)s1`, which “activity change, negative = inhibition” value is on record?
Answer: The value was inactive: -4.15%.

Question: For `CCOc1ccccc1NC(=O)C1CCCN(c2ncnc3onc(-c4ccc(F)cc4)c23)C1` (configuration not stated), which “activity change, negative = inhibition” value is on record?
Answer: The value was inactive: 1.2%.

Question: For `COc1ccc(NC(=O)C2CCN(S(=O)(=O)c3cn(C)cn3)CC2)cc1Cl`, which “activity change, negative = inhibition” value is on record?
Answer: Its value is inactive: 1.53%.

Question: With `NC(=O)CN1C(=O)C2(SCC(=O)N2c2cccc(F)c2)c2ccccc21` (configuration not stated) as the compound, how does the “activity change, negative = inhibition” value read?
Answer: Its value is inactive: 1.27%.

Question: For `Cc1ccc(NC(=O)CSc2nnc(COc3ccc(Cl)cc3)o2)cc1`, which “activity change, negative = inhibition” value is on record?
Answer: The value was inactive: -0.988%.

Question: For `COc1ccc(C2C(C(=O)Nc3ccc(C)cc3C)=C(C)Nc3nc(SC)nn32)cc1OC` (configuration not stated), which “activity change, negative = inhibition” value is on record?
Answer: The value was inactive: -1.93%.

Question: For `CCCCn1c(=O)c2oc3ccccc3c2n(Cc2ccc(OC)cc2)c1=O`, which “activity change, negative = inhibition” value is on record?
Answer: The value was inactive: -8.25%.

Question: Which “activity change, negative = inhibition” value does the source give for `Cc1cc(C)cc(NC(=O)c2cn3c4c(ccc(Cl)c4c2=O)OC(C)C3)c1` (configuration not stated) here?
Answer: Its value is inactive: -11.1%.
